# About 6,000 (1.7%) of roughly 360,000 compounds were called active. This list was built around the results that the source calls inconclusive (neither active nor inactive); the mix of calls is not that of the screen. Calls follow the shape of the dose curve; as a rule, active = well fitted cell-killing curve with a large enough effect; inconclusive = small, poorly fitted or top-dose-only effect, or effect the other way; inactive = flat fitted curve, though single readings scatter. No potency is given beside an inconclusive call; the fits are too rough.
# Assay: qHTS for induction of synthetic lethality in tumor cells producing 2HG: qHTS for the HT-1080-NT fibrosarcoma cell line;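 also: NT is the 2HG producing partner of a matched IDH1 knockdown line; nearly all actives have a fitted effect of over 55% in size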;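 as to activity, negative = less viability: 0% = DMSO-treated cells and -100% = media-only wells without cells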
# Conditions: HT-1080-NT fibrosarcoma viability, CellTiter-Glo ATP luminescence, 48 h; activity, negative = less viability: at 46.1 µM (top of the series) unless noted
# How it was run: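 Luminescent CellTiter-Glo readout after 48 hours of compound exposure at 37 degrees C defined viability of HT-1080-NT cells. Activity was normalized to DMSO wells and cell-free media wells; concentration-response curves were fitted and assigned curve classes.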
# Potency is read from the fitted curve at half-maximal effect; tags tell the direction and shape of the fitted curve.
SMILES,Potency,"activity, negative = less viability"
CC(=O)NS(=O)(=O)c1ccc(N)cc1,"inconclusive [rising, full curve, poor fit]",–
CC/C(=N\NC(=S)Nc1ccc(OC)cc1)c1ccc(OC(F)F)cc1,"inconclusive [cytotoxic, single point]",–
CC(C)Oc1cccc(C(=O)C2CCCN(C(=O)CCc3cnn(C)c3)C2)c1 (configuration not stated),–,inactive: -8.6%
CS(=O)(=O)N1CCN(C(=O)NC23CC4CC(CC(C4)C2)C3)CC1,–,inactive: 1.3%
CCOc1ccccc1C(=O)N1CCN(c2cccc(Cl)c2)CC1,active: 0.251 µM,–
COc1ccc(-c2nc3c4ccccc4ccn3c2CN2CCCCC2)cc1OC,–,inactive: 0.58%
CC(=O)c1sc2nc(-c3ccco3)ccc2c1N,–,inactive: -17.7%
COc1ccc(OC)c(/C=C/C(=O)c2ccc(Cl)cc2)c1,"inconclusive [cytotoxic, single point]",–
COc1ccc(S(=O)(=O)c2c(O)cc(C)c(NS(=O)(=O)c3ccccc3)c2C)cc1,–,inactive: -21.9%
Cc1c(C(=O)Nc2ccc(-c3nnc4n3CCCCC4)cc2)oc2c1ccc1ccccc12,"inconclusive [cytotoxic, single point]",–
COC(=O)C1CCN(c2ccc(Cl)nn2)CC1,–,inconclusive: 38.7%
O=[N+]([O-])c1ccc2nc(/C=C/c3ccc(Cl)cc3)[nH]c2c1,"inconclusive [cytotoxic, single point]",–
O=C(Oc1ccccc1C(=O)Nc1ccccc1)c1ccccc1Br,"inconclusive [cytotoxic, full curve]",–
COc1cc(C(C)=O)ccc1OCC(=O)N1CCC(Cc2ccccc2)CC1,–,inactive: -14.8%
CCC(C)N1C(=O)C2C(C(=O)Nc3cccc(OC)c3)C3C=CC2(O3)C1C(=O)NC1CCCCC1C (configuration not stated),–,inactive: -4.13%
COc1ccc(OCC(=O)Nc2cccc3cccnc23)cc1,–,inconclusive: 17.4%
CCCCn1c(=O)[nH]c(=O)c2c1nc(-c1ccc(OC)c(Br)c1)n2CC(C)C,active: 29.1 µM,–
CC(C)(C)OC(=O)C[C@@H]1C/C=C\C[C@@H](CC(=O)NCCO)C(=O)NC[C@@H](c2ccccc2)OC1=O,"inconclusive [rising, single point]",–
COc1ccc(N(Cc2cc3cc(OC)ccc3[nH]c2=O)C(=O)c2cccnc2)cc1,–,inactive: 7.86%

SMILES,Potency,"activity, negative = less viability"
OC(c1ccco1)c1nc(-c2ccc(F)c(Cl)c2)cs1 (configuration not stated),–,inactive: -18.8%
CN1CCN(c2ccc(CNC(=O)C3(C)Cc4c(-c5ccc(C(N)=O)cc5)ccnc4O3)cc2)CC1 (configuration not stated),–,inactive: -14.1%
Cn1c(=O)c2cc(NC(=O)NCCc3ccccc3)ccc2n1Cc1cccc(C(F)(F)F)c1,"inconclusive [cytotoxic, single point]",–
Cc1cccc(N2CC(C(=O)Nc3ccc4c(c3)OCCO4)CC2=O)c1C (configuration not stated),–,inactive: -0.764%
CN(CCOCCOc1ccc(Cl)cc1Br)Cc1ccccc1,"inconclusive [cytotoxic, partial curve]",–
O=C(Nc1nnc(C2=COCCO2)o1)c1cccc(C(F)(F)F)c1,–,inactive: -13.6%
CCCCN(C=O)c1c(CC)nc2ccc(C(=O)N(CC)CCN(C)C)cn12,"inconclusive [rising, single point]",–
CCOC(=O)c1[nH]c2ccc(OC)cc2c1NC(=S)N1CCN(c2cccc(C)c2C)CC1,"inconclusive [cytotoxic, single point]",–
COc1cccc(CCN2C(=O)CCC3=C2CCC3=O)c1,"inconclusive [rising, single point]",–
COC(=O)C1=C(C(=O)OC)[C@@H]2N(C)c3ccc(OC)cc3[C@@]23C[C@@H](C(=O)OC)N(S(=O)(=O)c2ccc(OC)cc2)C3=N1,–,inactive: 4.76%
NC(=O)COC(=O)CNC(=O)c1sc2ccccc2c1Cl,–,inactive: 12.2%
CCOc1ccc(Br)cc1S(=O)(=O)Nc1ccc(NC(=O)c2ccccc2F)cc1,–,inactive: -27.9%
Cc1ccccc1-n1cc(C(=O)c2cc(Cl)ccc2O)cc(C#N)c1=O,–,inactive: -0.193%
CCOC(=O)CNC(=S)NN(C)C,–,inactive: 1.3%
CC(C)C(c1nnnn1C1CCCCC1)N1CCc2ccccc2C1 (configuration not stated),–,inconclusive: 12.7%
COc1ccc(-n2nc(C(=O)NCC(=O)NCCCN3CC(C)CC(C)C3)c3ccccc3c2=O)cc1Cl (configuration not stated),"inconclusive [cytotoxic, single point]",–
C(=Cc1c[nH]c2ccccc12)c1ccc2ccccc2n1,active: 16.4 µM,–
Oc1c(Br)cc(Br)cc1CNc1ccc(F)cc1,"inconclusive [cytotoxic, single point]",–

# Reference: PubChem BioAssay AID686970 (National Center for Advancing Translational Sciences (NCATS), 2013)
